# The whole screen tested about 43,000 compounds, of which about 830 (1.9%) were called active. The shares of active, inactive and inconclusive entries below differ from those in the screen. How the source made its calls: active means clear falling dose curves in both reporters; inconclusive means both reporters move, but less clearly or upward; inactive means either reporter flat; the % is the NLuc reporter signal. Potencies of inconclusive entries are left out as doubtful fits.
# Test: Cell-based coincidence reporter assay to measure PMP22 gene transcription in S16 Pmp22-F2sN cells - Primary screen
# Settings: S16 Pmp22-F2sN Schwann cells (luciferase reporters placed in the Pmp22 gene), FLuc/NLuc coincidence luminescence, 24 h; measured here: NLuc reporter readout, at 57.5 µM (top of the series)
# Outline: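 S16(c9) Schwann cells with FLuc/NLuc coincidence reporter in the Pmp22 3' UTR; compounds pin-transferred, 24 h at 37C. Dual-luciferase read: FLuc first, then NLuc after Stop&Glo, each 10 min at room temperature.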
# Potency means the concentration at half of the fitted maximal effect; tags describe the fitted curve by direction and shape.
row,Structure (SMILES),Potency
1,O=C(CCc1ccccc1)N(Cc1cccnc1)c1nc2c(F)cc(F)cc2s1,"inconclusive [phenotype inactive, single point]"
2,Cn1c(SCC(N)=O)nc2c([nH]c3ccccc32)c1=O,"inconclusive [phenotype inactive, partial curve, poor fit]"
3,O=C(NCCn1cc(SCc2cccc(F)c2)c2ccccc21)c1cccc(C(F)(F)F)c1,"inconclusive [phenotype inactive, partial curve]"
4,Fc1ccc(-c2nc(-c3cccs3)c(-c3cccs3)[nH]2)cc1,"inconclusive [phenotype inactive, single point]"
5,Cc1ccc(S(=O)(=O)c2nnn3c2nc(NCc2cccs2)c2sccc23)cc1C,"inconclusive [phenotype inactive, single point]"
6,CCOC(=O)c1scc(-c2ccc(C)cc2)c1S(=O)(=O)Nc1cccc(CC)c1,"inconclusive [phenotype inactive, single point]"
7,O=C(Cn1c(=O)n(-c2ccc(F)cc2)c(=O)c2sc3ccccc3c21)NC1CCCCC1,"inconclusive [phenotype inactive, single point]"
8,COc1ccccc1NC(=O)C1=C(C)Nc2nc3ccccc3n2C1c1cccc(Br)c1 (stereo not drawn),"inconclusive [phenotype inactive, single point]"
9,CCOc1ccc(N(CC)S(=O)(=O)N2CCCC(C(=O)NCc3ccc(Cl)cc3)C2)cc1 (stereo not drawn),"inconclusive [phenotype inactive, single point]"
10,CC1CCC(Nc2ncnc3onc(-c4ccc(Cl)cc4)c23)CC1 (stereo not drawn),inactive
11,CCN1CCOC(=O)C1CC(=O)Nc1cccc(OC)c1 (stereo not drawn),active: 12.7 µM
12,Cn1cc(S(=O)(=O)N2CCCCCC2)cc1C(=O)NCc1ccc(Cl)cc1,"inconclusive [phenotype inactive, single point]"
13,Cc1ccc(N2CCn3c2nc2c3c(=O)n(CCCc3ccccc3)c(=O)n2C)cc1,inactive
14,CC(=O)N(Cc1cccnc1)c1nc2ccc(F)cc2s1,inactive
15,CCOc1ccc(-c2noc(CSc3nnc(-c4ccccc4)n3-c3ccccc3)n2)cc1,"inconclusive [phenotype inactive, single point]"
16,CCN(c1ccc(OC)cc1)S(=O)(=O)c1nnc(NC(=O)COc2ccc(F)cc2)s1,"inconclusive [phenotype inactive, single point]"
17,CC(C)c1nnc(NC(=O)c2nc(SCc3ccc(F)cc3)ncc2Cl)s1,inactive
18,COc1ccc(NC(=O)Cc2csc(COc3cccc(C)c3)n2)cc1OC,"inconclusive [phenotype inactive, single point]"
19,Cc1ccc2nc(Cl)c3cc(C(=O)NCCCN4CCC(C)CC4)sc3c2c1,inactive

row,Structure (SMILES),Potency
1,Cc1ccc(Cl)cc1N1CCN(C(=O)c2cccn2-c2nnc(N3CCCCC3)s2)CC1,"inconclusive [phenotype inactive, partial curve]"
2,CCOC(=O)c1c(S(=O)(=O)NCC(=O)Nc2ccc(Cl)c(C(F)(F)F)c2)c(C)n(C)c1C,"inconclusive [phenotype inactive, single point]"
3,CSc1ncc(Cl)c(C(=O)Nc2nc3ccc(F)cc3s2)n1,inactive
4,COc1ccc(-n2c(=O)c3ccc(C(=O)NCc4ccc(C)cc4)cc3n(CC(=O)Nc3cccc(F)c3)c2=O)cc1,"inconclusive [phenotype inactive, single point]"
5,O=C(Cn1nnc(-c2ccc(C(F)(F)F)cc2)n1)NCCc1ccccc1,inactive
6,CCCCCn1c(=O)[nH]c2cc(C(=O)N3CCN(c4ccc(OC)cc4)CC3)ccc2c1=O,"inconclusive [phenotype inactive, single point]"
7,CCOc1ccc(NC(=O)NC(C)c2c(-n3cccc3)sc3c2CCN(CC)C3)cc1 (stereo not drawn),active: 14.5 µM
8,COc1ccc(CCNC(=O)C(=O)NCC(c2ccco2)S(=O)(=O)c2cccs2)cc1 (stereo not drawn),inactive
9,CCOc1ccc(N(CC(=O)Nc2ccccc2CC)S(=O)(=O)c2c(C)noc2C)cc1,"inconclusive [phenotype inactive, partial curve]"
10,Cc1cc(C)cc(NS(=O)(=O)c2ccc3[nH]cc(C(=O)NC4CCCCC4)c(=O)c3c2)c1,"inconclusive [phenotype inactive, single point]"
11,CCOc1ccc(-c2cc(C(=O)NCc3ccccc3Cl)c3ccccc3n2)cc1,"inconclusive [phenotype inactive, single point]"
12,Cc1cc(C)cc(NC(=O)CSc2oc(-c3ccccc3)nc2S(=O)(=O)c2ccccc2)c1,"inconclusive [phenotype inactive, single point]"
13,COCCCNC(=O)c1ccc(-n2c(-c3ccccc3)cc3c2CCCC3)cc1,"inconclusive [phenotype inactive, partial curve, poor fit]"
14,Cc1cccc(NC(=O)Cn2cc(C(=O)c3ccco3)c3ccccc32)c1,"inconclusive [phenotype inactive, single point]"
15,CN(Cc1ccccc1)c1ccc(-c2nc(-c3ccccn3)no2)cc1[N+](=O)[O-],"inconclusive [phenotype inactive, single point]"
16,CCn1c(=N)n(CCOc2ccc(Br)cc2)c2ccccc21,"inconclusive [phenotype inactive, single point]"
17,O=C(Cn1cc(S(=O)(=O)Cc2cccc(Cl)c2)c2ccccc21)Nc1ccccc1Cl,"inconclusive [phenotype inactive, single point]"
18,CCCCC12CN3CC(C)(CN(C1)C3c1ccc(O)c(OC)c1)C2=O (stereo not drawn),"inconclusive [phenotype inactive, full curve, poor fit]"
19,COCCCNC(=O)Cn1c(=O)nc(-c2ccccc2)c2ccccc21,"inconclusive [phenotype inactive, partial curve]"

# Source: PubChem BioAssay AID1508649 (National Center for Advancing Translational Sciences (NCATS), 2021)
